# Source: US11685745B2, “Substituted benzoxazole and benzofuran compounds as PDE7 inhibitors” (Dart NeuroScience, LLC, priority 2017, dated 2023)
# Biological target: N-terminal truncated recombinant human PDE7B enzyme (Homo sapiens (Human), UniProt Q9NP56)
# Experiment: biochemical
row,Compound,IC50 [nM]
1,"CC(C)N(C)C(=O)c1cc2cc(Cl)c3c(c2o1)C1(CCCCC1)NC(=O)N3 [Example 391, 5′-Chloro-N-methyl-7′-oxo-N-(propan-2-yl)-7′,8′-dihydro-6′H-spiro[cyclohexane-1,9′-furo[2,3-f]quinazoline]-2′-carboxamide]",10 to 100
2,"CCOC1CCN(Cc2nc3cc(Cl)c4c(c3o2)C2(CCCCC2)NC(=O)N4)CC1 [Example 69, 5-Chloro-2-[(4-ethoxypiperidin-1-yl)methyl]-7,8-dihydro-6H-spiro[[1,3]oxazolo[5,4-f]quinazoline-9,1′-cyclohexane]-7-one]",100 to 1000
3,"O=C1Nc2c(Cl)cc3nc(C(=O)N4CCN(CC(F)(F)F)CC4)oc3c2C2(CCCCC2)N1 [Example 195, 5-Chloro-2-[4-(2,2,2-trifluoroethyl)piperazine-1-carbonyl]-7,8-dihydro-6H-spiro[[1,3]oxazolo[5,4-f]quinazoline-9,1′-cyclohexane]-7-one]",10 to 100
4,"O=C1Nc2c(Cl)cc3nc(CN4C[C@@H]5C[C@H]4CO5)oc3c2C2(CCCCC2)N1 [Example 110, 5-Chloro-2-[(1S,4S)-2-oxa-5-azabicyclo[2.2.1]heptan-5-ylmethyl]-7,8-dihydro-6H-spiro[[1,3]oxazolo[5,4-f]quinazoline-9,1′-cyclohexane]-7-one]",10 to 100
5,"CCN1CCN(Cc2nc3cc(Cl)c4c(c3o2)C2(CCCCC2)NC(=O)N4)CC1 [Example 139, 5-Chloro-2-[(4-ethylpiperazin-1-yl)methyl]-7,8-dihydro-6H-spiro[[1,3]oxazolo[5,4-f]quinazoline-9,1′-cyclohexane]-7-one]",100 to 1000
6,"COc1ccc(CNCc2nc3cc(Cl)c4c(c3o2)C2(CCCCC2)NC(=O)N4)c(OC)c1 [Example 92, 5-Chloro-2-({[(2,4-dimethoxyphenyl)methyl]amino}methyl)-7,8-dihydro-6H-spiro[[1,3]oxazolo[5,4-f]quinazoline-9,1′-cyclohexane]-7-one]",10 to 100
7,"N#CC1CCN(C(=O)c2cc3cc(Cl)c4c(c3o2)C2(CCCCC2)NC(=O)N4)CC1 [Example 406, 1-({5′-Chloro-7′-oxo-7′,8′-dihydro-6′H-spiro[cyclohexane-1,9′-furo[2,3-f]quinazoline]-2′-yl}carbonyl)piperidine-4-carbonitrile]",10 to 100
8,"O=C1Nc2c(Cl)cc3cc(C(=O)N4CC5C(C4)C5(F)F)oc3c2C2(CCCCC2)N1 (centres unmarked) [Example 377, 5′-Chloro-2′-{6,6-difluoro-3-azabicyclo[3.1.0]hexane-3-carbonyl}-7′,8′-dihydro-6′H-spiro[cyclohexane-1,9′-furo[2,3-f]quinazoline]-7′-one]",10 to 100
9,"O=C1Nc2c(Cl)cc3nc(C(=O)NCCOC(F)(F)F)oc3c2C2(CCCCC2)N1 [Example 205, 5-Chloro-7-oxo-N-[2-(trifluoromethoxy)ethyl]-7,8-dihydro-6H-spiro[[1,3]oxazolo[5,4-f]quinazoline-9,1′-cyclohexane]-2-carboxamide]",10 to 100
10,"O=C1Nc2c(Cl)cc3nc(C(=O)N[C@H]4CCOC4)oc3c2C2(CCCCC2)N1 [Example 219, 5-Chloro-7-oxo-N-[(3S)-oxolan-3-yl]-7,8-dihydro-6H-spiro[[1,3]oxazolo[5,4-f]quinazoline-9,1′-cyclohexane]-2-carboxamide]",10 to 100
11,"O=C1Nc2c(Cl)cc3cc(CNCc4cnco4)oc3c2C2(CCCCC2)N1 [Example 539, 5′-Chloro-2′-{[(1,3-oxazol-5-ylmethyl)amino]methyl}-7′,8′-dihydro-6′H-spiro[cyclohexane-1,9′-furo[2,3-f]quinazoline]-7′-one]",100 to 1000
12,"O=C1Nc2c(Cl)cc3cc(C(=O)N4CCN(CC(F)F)CC4)oc3c2C2(CCCCC2)N1 [Example 239, 5′-Chloro-2′-[4-(2,2-difluoroethyl)piperazine-1-carbonyl]-7′,8′-dihydro-6′H-spiro[cyclohexane-1,9′-furo[2,3-f]quinazoline]-7′-one]",10 to 100
13,"O=C1Nc2c(Cl)cc3cc(C(=O)N4CCn5cc(C(F)(F)F)nc5C4)oc3c2C2(CCCCC2)N1 [Example 280, 5′-Chloro-2′-[2-(trifluoromethyl)-5H,6H,7H,8H-imidazo[1,2-a]pyrazine-7-carbonyl]-7′,8′-dihydro-6′H-spiro[cyclohexane-1,9′-furo[2,3-f]quinazoline]-7′-one]",10 to 100
14,"C#CCNC(=O)c1cc2cc(Cl)c3c(c2o1)C1(CCCCC1)NC(=O)N3 [Example 385, 5′-Chloro-7′-oxo-N-(prop-2-yn-1-yl)-7′,8′-dihydro-6′H-spiro[cyclohexane-1,9′-furo[2,3-f]quinazoline]-2′-carboxamide]",10 to 100
15,"CN(Cc1nc2ccccc2n1C)C(=O)c1cc2cc(Cl)c3c(c2o1)C1(CCCCC1)NC(=O)N3 [Example 288, 5′-Chloro-N-methyl-N-[(1-methyl-1H-1,3-benzodiazol-2-yl)methyl]-7′-oxo-7′,8′-dihydro-6′H-spiro[cyclohexane-1,9′-furo[2,3-f]quinazoline]-2′-carboxamide]",10 to 100
16,"CC(C)(C)C(=O)CNC(=O)c1cc2cc(Cl)c3c(c2o1)C1(CCCCC1)NC(=O)N3 [Example 326, 5′-Chloro-N-(3,3-dimethyl-2-oxobutyl)-7′-oxo-7′,8′-dihydro-6′H-spiro[cyclohexane-1,9′-furo[2,3-f]quinazoline]-2′-carboxamide]",10 to 100
17,"CC1CCCN(C(=O)c2cc3cc(Cl)c4c(c3o2)C2(CCCCC2)NC(=O)N4)C1 (centres unmarked) [Example 429, 5′-Chloro-2′-(3-methylpiperidine-1-carbonyl)-7′,8′-dihydro-6′H-spiro[cyclohexane-1,9′-furo[2,3-f]quinazoline]-7′-one]",10 to 100
18,"CO[C@H]1CCN(Cc2nc3cc(Cl)c4c(c3o2)C2(CCCCC2)NC(=O)N4)C1 [Example 132, 5-Chloro-2-{[(3S)-3-methoxypyrrolidin-1-yl]methyl}-7,8-dihydro-6H-spiro[[1,3]oxazolo[5,4-f]quinazoline-9,1′-cyclohexane]-7-one]",10 to 100
19,"O=C1Nc2c(Cl)cc3nc(C(=O)N4CCN5CCC[C@H]5C4)oc3c2C2(CCCCC2)N1 [Example 210, 2-[(8aS)-Octahydropyrrolo[1,2-a]piperazine-2-carbonyl]-5-chloro-7,8-dihydro-6H-spiro[[1,3]oxazolo[5,4-f]quinazoline-9,1′-cyclohexane]-7-one]",10 to 100
20,"O=C1Nc2c(Cl)cc3nc(CCO)oc3c2C2(CCCCC2)N1 [Example 22, 5′-Chloro-2′-(2-hydroxyethyl)-6′H-spiro[cyclohexane-1,9′-oxazolo[5,4-f]quinazolin]-7′(8′H)-one]",10 to 100
21,"O=C1Nc2c(Cl)cc3cc(C(=O)NCCc4ccc5c(c4)OCO5)oc3c2C2(CCCCC2)N1 [Example 337, N-[2-(2H-1,3-benzodioxol-5-yl)ethyl]-5′-chloro-7′-oxo-7′,8′-dihydro-6′H-spiro[cyclohexane-1,9′-furo[2,3-f]quinazoline]-2′-carboxamide]",10 to 100
22,"CC1CC(NCc2nc3cc(Cl)c4c(c3o2)C2(CCCCC2)NC(=O)N4)CC(C)O1 (centres unmarked) [Example 151, 5-Chloro-2-{[(2,6-dimethyloxan-4-yl)amino]methyl}-7,8-dihydro-6H-spiro[[1,3]oxazolo[5,4-f]quinazoline-9,1′-cyclohexane]-7-one]",10 to 100
23,"O=C1Nc2c(Cl)cc3cc(C(=O)NC4CCCC4)oc3c2C2(CCCCC2)N1 [Example 272, 5′-Chloro-N-cyclopentyl-7′-oxo-7′,8′-dihydro-6′H-spiro[cyclohexane-1,9′-furo[2,3-f]quinazoline]-2′-carboxamide]",100 to 1000
